Results taken from PubChem BioAssay AID504333 (National Center for Advancing Translational Sciences (NCATS), 2011).
The whole screen tested about 360,000 compounds, of which about 16,000 (4.4%) were called active. The shares of active, inactive and inconclusive entries below differ from those in the screen. Calls come from the whole dose curve; as a rule, active = well fitted inhibition curve with a large enough effect; inconclusive = small, poorly fitted or top-dose-only effect; inactive = no such curve, though single readings can be large or run the other way. Potencies of inconclusive entries are doubtful fits and often do not repeat.

Each molecule was assayed against Bromodomain adjacent to zinc finger domain protein 2B (Homo sapiens) (UniProt Q9UIF8) (assay: qHTS Assay for Inhibitors of BAZ2B). Settings: AlphaScreen BAZ2B-H3K14Ac peptide displacement; series mostly up to 114 µM.
Sequence of UniProt Q9UIF8 (Q9UIF8 whole entry, looked up, the tested form may be a part): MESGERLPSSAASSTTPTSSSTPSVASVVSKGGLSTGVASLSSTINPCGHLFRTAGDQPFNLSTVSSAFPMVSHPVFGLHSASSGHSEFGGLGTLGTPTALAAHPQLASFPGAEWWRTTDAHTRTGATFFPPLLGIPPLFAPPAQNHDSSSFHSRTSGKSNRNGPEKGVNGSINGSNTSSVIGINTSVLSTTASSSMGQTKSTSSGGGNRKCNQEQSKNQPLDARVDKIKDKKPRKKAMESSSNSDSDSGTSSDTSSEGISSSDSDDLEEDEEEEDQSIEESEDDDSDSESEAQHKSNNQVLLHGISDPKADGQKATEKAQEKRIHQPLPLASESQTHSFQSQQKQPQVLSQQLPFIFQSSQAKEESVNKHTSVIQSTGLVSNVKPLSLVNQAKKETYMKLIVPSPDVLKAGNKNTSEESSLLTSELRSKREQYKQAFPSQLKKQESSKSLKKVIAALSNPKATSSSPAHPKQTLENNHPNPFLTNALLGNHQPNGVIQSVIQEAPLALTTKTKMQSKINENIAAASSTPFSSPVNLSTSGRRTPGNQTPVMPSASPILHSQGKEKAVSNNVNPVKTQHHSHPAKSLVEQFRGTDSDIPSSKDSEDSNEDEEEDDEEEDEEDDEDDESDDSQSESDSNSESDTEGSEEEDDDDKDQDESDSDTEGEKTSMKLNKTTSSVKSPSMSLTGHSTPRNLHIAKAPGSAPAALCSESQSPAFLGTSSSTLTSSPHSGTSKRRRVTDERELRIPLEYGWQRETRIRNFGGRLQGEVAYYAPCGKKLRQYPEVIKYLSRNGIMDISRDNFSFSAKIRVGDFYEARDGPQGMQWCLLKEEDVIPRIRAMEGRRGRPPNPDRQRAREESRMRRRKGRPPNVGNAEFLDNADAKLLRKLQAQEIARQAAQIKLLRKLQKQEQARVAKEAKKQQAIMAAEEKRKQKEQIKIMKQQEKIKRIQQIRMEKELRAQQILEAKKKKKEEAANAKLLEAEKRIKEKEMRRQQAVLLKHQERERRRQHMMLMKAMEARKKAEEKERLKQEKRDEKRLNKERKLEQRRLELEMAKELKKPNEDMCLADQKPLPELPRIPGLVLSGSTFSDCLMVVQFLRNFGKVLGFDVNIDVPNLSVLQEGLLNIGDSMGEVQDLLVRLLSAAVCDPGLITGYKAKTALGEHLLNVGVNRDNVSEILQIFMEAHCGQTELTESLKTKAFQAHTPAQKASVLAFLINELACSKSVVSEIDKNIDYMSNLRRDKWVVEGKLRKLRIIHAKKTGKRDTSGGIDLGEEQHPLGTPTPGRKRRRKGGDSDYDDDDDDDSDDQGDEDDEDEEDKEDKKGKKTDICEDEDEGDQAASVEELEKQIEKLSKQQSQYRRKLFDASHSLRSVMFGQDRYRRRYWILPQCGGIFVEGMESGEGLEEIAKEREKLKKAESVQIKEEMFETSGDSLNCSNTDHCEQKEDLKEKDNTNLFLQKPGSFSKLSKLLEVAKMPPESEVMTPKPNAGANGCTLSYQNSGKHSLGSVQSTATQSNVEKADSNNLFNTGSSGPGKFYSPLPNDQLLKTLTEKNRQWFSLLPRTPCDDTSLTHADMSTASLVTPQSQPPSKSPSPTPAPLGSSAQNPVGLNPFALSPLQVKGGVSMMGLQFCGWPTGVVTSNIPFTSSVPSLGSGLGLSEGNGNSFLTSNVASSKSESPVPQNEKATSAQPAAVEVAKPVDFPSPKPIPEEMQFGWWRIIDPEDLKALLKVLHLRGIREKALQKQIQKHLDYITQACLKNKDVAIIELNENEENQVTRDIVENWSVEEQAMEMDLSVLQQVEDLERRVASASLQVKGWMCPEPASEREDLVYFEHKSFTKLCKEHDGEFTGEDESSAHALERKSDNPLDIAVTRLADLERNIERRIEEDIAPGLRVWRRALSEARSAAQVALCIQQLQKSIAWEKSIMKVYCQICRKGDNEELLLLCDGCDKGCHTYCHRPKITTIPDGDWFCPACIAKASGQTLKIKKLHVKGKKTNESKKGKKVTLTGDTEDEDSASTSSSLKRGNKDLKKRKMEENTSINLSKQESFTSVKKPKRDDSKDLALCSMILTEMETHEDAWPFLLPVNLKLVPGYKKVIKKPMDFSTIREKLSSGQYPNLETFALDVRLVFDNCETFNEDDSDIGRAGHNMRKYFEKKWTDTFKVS
Outline: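 Compounds, titrated to a top concentration of 110 uM, were incubated 30 min at room temperature with preformed BAZ2B/acetyl-K14 H3 peptide complex (50 nM each). Proximity signal was measured by AlphaScreen after 20 min with beads.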
Note: nearly all actives have a fitted effect of over 60% in size.
Potency is the fitted concentration of half-maximal effect; tags give direction and shape of the fitted curve.

Row | SMILES | Potency
1 | COc1ccc(Nc2ncccc2C(=O)NCc2ccccc2)cc1 | inconclusive: 79.4 µM [inhibitor, single point]
2 | O=C(Nc1ccc(N2CCOCC2)cc1)c1ccc([N+](=O)[O-])o1 | inactive
3 | COc1ccc(-c2nc(CSCC(=O)N3CCN(c4ccccc4F)CC3)c(C)o2)cc1 | inactive
4 | O=C(CN1C(=O)NC(Cc2c[nH]c3ccccc23)C1=O)NCCc1ccccc1 (configuration not stated) | inactive
5 | COc1cccc(/C=N/n2c(-c3cc(C)[nH]n3)n[nH]c2=S)c1O | inconclusive: 89.1 µM [inhibitor, single point]
6 | O=C(CSc1nc2ccsc2c(=O)n1Cc1ccc(C(=O)O)cc1)NCc1ccco1 | inconclusive: 79.4 µM [inhibitor, partial curve, poor fit]
7 | O=C(CCS(=O)(=O)c1ccc(Br)s1)Nc1cc(C(F)(F)F)cc(C(F)(F)F)c1 | inactive
8 | COC(=O)C1=C(C(=O)OC)C(c2cc(Cl)ccc2O)c2sc(=O)[nH]c2S1 (configuration not stated) | inconclusive: 79.4 µM [inhibitor, single point]
9 | NC1=NN=C(N2N=C(c3ccco3)CC2(O)C(F)(F)F)n2ncnc2C1 (configuration not stated) | active: 79.4 µM
10 | CCCc1cc(=O)oc2cc(C)cc(OC(C)C(=O)NCCCN3CCOCC3)c12 (configuration not stated) | inactive
11 | COC(=O)[C@]1(C)N[C@H](c2ccc(-c3ccc(Cl)c(Cl)c3)c(OC)c2)[C@@H]2C(=O)N(C)C(=O)[C@@H]21 | inactive
12 | CN(C)S(=O)(=O)c1cccc(NC(=O)CSc2cccc3cccnc23)c1 | active: 56.2 µM
13 | COc1ccc(CCNc2ccc(C(CC(N)=O)NC(=O)c3cc(OC)ccc3OC)cc2[N+](=O)[O-])cc1 (configuration not stated) | active: 31.6 µM
14 | Nc1nc(-c2ccc(Br)s2)c(Br)s1 | active: 39.8 µM
15 | O=C(NC(=S)Nc1ccc(S(=O)(=O)Nc2nccs2)cc1)c1ccc(F)cc1 | inconclusive: 44.7 µM [inhibitor, partial curve]
16 | COc1cc(C2CC(=O)Nc3ccc4ccccc4c32)ccc1OC(=O)C(C)C (configuration not stated) | inconclusive: 56.2 µM [inhibitor, single point]
17 | CCN1CCN(C(=O)c2ccc(CNS(=O)(=O)c3cccc(OC)c3)cc2)CC1 | inconclusive: 89.1 µM [inhibitor, single point]
18 | O=C(/C=C/NNC(=O)c1ccc(Br)cc1)c1ccccc1 | inconclusive: 35.5 µM [inhibitor, single point]
19 | CCOC(=O)/C=c1\s/c(=C\c2sccc2C)c(=O)n1CC(=O)NCc1ccc(C)cc1 | inactive
20 | O=[N+]([O-])c1ccc(NC2CCN(Cc3ccccc3)CC2)c([N+](=O)[O-])c1 | inconclusive: 50.1 µM [inhibitor, partial curve]
21 | Cc1onc(-c2c(Cl)cccc2Cl)c1C(=O)NC(=S)Nc1sc2c(c1C(N)=O)CCC(C)C2 (configuration not stated) | inactive
22 | O=C(c1ccc2c(c1)OCCO2)N1CCN(c2ccc([N+](=O)[O-])cc2)CC1 | inactive
23 | Cc1ccc(NCC(=O)N/N=C/c2cccn2C)cc1 | active: 39.8 µM
24 | O=C1C(=C2CCCCC2)SC(=S)N1Cc1ccco1 | inconclusive: 44.7 µM [inhibitor, partial curve]

Row | SMILES | Potency
25 | Cn1nnnc1SCC1=C(C(=O)O)N2C(=O)C(NC(=O)C3CC3c3ccccc3)C2SC1 (configuration not stated) | active: 70.8 µM
26 | CCN(CC)CCNC(=O)c1[nH]c2ccc(OCc3ccccc3)cc2c1C | inconclusive: 14.1 µM [inhibitor, full curve]
27 | CCOc1cc(S(=O)(=O)N2CCC(Cc3ccccc3)CC2)c(OCC)cc1-n1cnnn1 | inconclusive: 79.4 µM [inhibitor, single point]
28 | CC(C)c1nc(SCC(=O)Nc2ccc(C(=O)O)cc2)c2c3c(sc2n1)CCCC3 | inactive
29 | O=C(Nc1ccccc1N1CCOCC1)C1CCN(S(=O)(=O)c2ccc(Cl)cc2)CC1 | inconclusive: 79.4 µM [inhibitor, single point]
30 | O=C(CCCCCN1C(=O)CCC1=O)Nc1ncn[nH]1 | active: 50.1 µM
31 | CC(=O)Nc1nc(N)n(-c2ccccc2)n1 | inconclusive: 89.1 µM [inhibitor, single point]
32 | CN(C)CCCn1c(-c2ccc(Cl)cc2)csc1=Nc1ccccc1 | active: 12.6 µM
33 | CC(C)(C)NC(=O)NC(=O)CSc1ccc(S(=O)(=O)N2CCOCC2)cn1 | inactive
34 | CN(C)c1ccc(/C=C2\N=C(c3ccc(Cl)c([N+](=O)[O-])c3)NC2=O)cc1 | inconclusive: 56.2 µM [inhibitor, partial curve]
35 | C=CCn1c(SCC(N)=O)nnc1-c1cccc(Br)c1 | inactive
36 | CN(C)c1ccc(/C=C2\C(=N)N3N=C(CC(=O)N4CCCCC4)SC3=NC2=O)cc1 | inconclusive: 56.2 µM [inhibitor, partial curve]
37 | COc1ccc(C2N(c3cc(C)on3)C(=O)C3CCCN32)cc1OC (configuration not stated) | inconclusive: 100 µM [inhibitor, single point]
38 | CC(C)(C)c1ccc(C(=O)N2CCCC(c3nc4c(nnn4Cc4cccc(F)c4)c(=O)[nH]3)C2)cc1 (configuration not stated) | inconclusive: 70.8 µM [inhibitor, single point]
39 | Cc1cccc(NC(=S)NC2CCCC2)n1 | inconclusive: 56.2 µM [inhibitor, partial curve, poor fit]
40 | COc1ccc2cc(CNc3ccc(C)cc3)c(=O)n(CC(=O)Nc3ccc(C)cc3Cl)c2c1 | inactive
41 | CCCCOc1ccccc1C(=O)N(Cc1sccc1C)C1CCS(=O)(=O)C1 (configuration not stated) | inactive
42 | CC1Cc2ccccc2N1C(=S)Nc1cccc(S(=O)(=O)N(C)C)c1 (configuration not stated) | inactive
43 | CC(C)OCCCN1C(=O)c2[nH]nc(-c3ccccc3O)c2C1c1ccccc1F (configuration not stated) | inactive
44 | Cn1nnc(NC(=S)NC(=O)c2cccc3ccccc23)n1 | inactive
45 | O=C(NCC1CCN(Cc2cccc(Cl)c2)CC1)Nc1ccc(F)c(Cl)c1 | inconclusive: 70.8 µM [inhibitor, single point]
46 | CCc1ccc(C(=O)CC2(O)C(=O)N(Cc3ccc(C)cc3)c3ccccc32)cc1 (configuration not stated) | active: 10 µM
47 | CC(C)c1nc2ccc(C(=O)NCc3ccccc3Br)cc2o1 | inactive
48 | Cc1ccc(-n2c(CCC(=O)O)ccc2-c2cccs2)cc1Cl | inconclusive: 50.1 µM [inhibitor, single point]

Row | SMILES | Potency
49 | Cc1cc(N/N=C/c2ccccc2Br)nc2ccccc12 | inactive
50 | Cc1c(C(=O)c2ccc(F)cc2F)c2ccccn2c1CCC#N | active: 17.8 µM
51 | O=c1ccsn1Cc1ccccc1 | active: 56.2 µM
52 | O=C1CCc2cc(S(=O)(=O)N3CCC(C(=O)NCCC4=CCCCC4)CC3)ccc2N1 | inconclusive: 89.1 µM [inhibitor, single point]
53 | O=Cc1cccn1-c1ccc(O)cc1 | active: 79.4 µM
54 | COC(=O)c1cccc(NC(=S)NCc2ccco2)c1 | inconclusive: 70.8 µM [inhibitor, single point]
55 | Cc1c([N+](=O)[O-])cc(C(=O)Nc2ccc(Cc3ccncc3)cc2)cc1[N+](=O)[O-] | inconclusive: 22.4 µM [inhibitor, full curve, poor fit]
56 | CCOC(=O)c1cnc(-n2[nH]c(C)c(Cc3ccccc3)c2=O)[nH]c1=O | active: 2 µM
57 | O=C(NCCc1ccc(Cl)cc1)c1ccc2nc[nH]c2c1 | inconclusive: 70.8 µM [inhibitor, partial curve]
58 | COc1ccccc1Nc1ncc(-c2cccs2)s1 | inconclusive: 50.1 µM [inhibitor, partial curve]
59 | CN(C)c1ccc(C(CNC(=O)c2cccc(C(F)(F)F)c2)N2CCCC2)cc1 (configuration not stated) | inconclusive: 39.8 µM [inhibitor, partial curve]
60 | O=C(CC1(O)C(=O)N(Cc2cccc3ccccc23)c2ccccc21)c1cccnc1 (configuration not stated) | inconclusive: 39.8 µM [inhibitor, partial curve]
61 | Cn1nnnc1SCC(=O)N1c2ccccc2Sc2ccc(Cl)cc21 | inactive
62 | CN1/C(=C\C(=O)CSc2nnc(NCc3ccccc3)s2)C(C)(C)c2ccccc21 | inconclusive: 79.4 µM [inhibitor, single point]
63 | CCC(C)(C)n1nnnc1C(c1cc2ccc(OC)cc2[nH]c1=O)N1CCN(C2CCCCC2)CC1 (configuration not stated) | inactive
64 | CCOc1ccc(NC(=O)CN(C)C(=O)c2ccc3[nH]c4c(c3c2)CC(C)CC4)cc1OCC (configuration not stated) | inconclusive: 31.6 µM [inhibitor, full curve]
65 | CCOc1ccc(C(=O)c2cc([N+](=O)[O-])ccc2N2CCOCC2)cc1 | inconclusive: 39.8 µM [inhibitor, partial curve]
66 | Nc1ccc(C23CC4CC(CC(C4)C2)C3)cc1 | inconclusive: 56.2 µM [inhibitor, partial curve]
67 | COc1c(O)c(O)c2oc(-c3ccccc3)cc(=O)c2c1OC | inconclusive: 50.1 µM [inhibitor, partial curve]
68 | Cc1ccccc1NC(=S)NCCc1c[nH]c2ccccc12 | inconclusive: 44.7 µM [inhibitor, partial curve]
69 | COC(=O)C1=C(C)N(Cc2ccccc2)C(=NCCc2c[nH]c3ccccc23)N[C@H]1c1cccc(C(F)(F)F)c1 | inconclusive: 50.1 µM [inhibitor, partial curve]
70 | Cc1ccc(/C=N/Nc2nnc(Cl)c3ccccc23)cc1 | inconclusive: 39.8 µM [inhibitor, partial curve]
71 | O=C(COC(=O)CCN1C(=O)/C(=C\C=C\c2ccccc2)SC1=S)Nc1cc(F)ccc1F | active: 20 µM
72 | CC(=O)c1ccc(NC(=O)N2C3CCC2CC(O)(c2cccnc2)C3)cc1 (configuration not stated) | inconclusive: 63.1 µM [inhibitor, partial curve, poor fit]
